Measured values taken from PubChem BioAssay AID463173 (ICCB-Longwood Screening Facility, Harvard Medical School, 2010).
The whole screen tested about 52,000 compounds, of which about 4,300 (8.3%) were called active. Rule as the data show it: active = survival mostly below about 52% (no sharp cut-off); inactive = mostly above about 56%. This is one part of the list.

Each molecule was assayed on DeltatarO mutant (assay: growth inhibition of S. aureus wild type versus tarO mutant, primary screen, teichoic acid synthesis inhibitors, RN4220, OD600 (AID 463173)). Details: OD600, 18 h, active compounds read low, screened at 18.75 µg/mL (by protocol).

SMILES	survival
Nc1c(-c2nc(-c3cccs3)no2)nnn1-c1ccccc1Cl	inactive: 66%
Cc1ccc(Cl)cc1N(C)C(=O)Cn1nc(Cc2cccnc2)c2ccccc2c1=O	inactive: 80%
CCOc1cccc(CNC(=O)c2ccc(N3CCCC3)c(NC(=O)NCc3ccc(F)cc3)c2)c1	inactive: 74%
COc1ccc(C)cc1NC(=O)c1oc2ccc(S(=O)(=O)N3CCCCC3)cc2c1C	inactive: 55%
Cc1ccc(SCc2[nH]nc3c2C(c2ccoc2)C(C#N)=C(N)O3)cc1 (configuration not stated)	inactive: 103%
Cc1ccc(C)c(N2CCN(S(=O)(=O)c3cc(Br)cc4c3N(C(=O)C3CC3)CC4)CC2)c1	inactive: 133%
CCOc1ccc(C2c3[nH]c4ccccc4c3CCN2C(=O)CCc2ccccc2)cc1 (configuration not stated)	inactive: 116%
COC(=O)c1nc2n(n1)C(c1cccc(Cl)c1)C(C(=O)Nc1ccccc1OC)=C(C)N2 (configuration not stated)	inactive: 123%
O=CNC1CCCc2c1[nH]c1ccccc21 (configuration not stated)	inactive: 100%
Cc1c2cnn(-c3ccccc3)c(=O)c2c(C)n1CCCC(=O)Nc1cc(F)ccc1F	inactive: 74%
Cc1cccc(C)c1NC(=O)C(NS(=O)(=O)c1ccc2c(c1)CCC(=O)N2)c1ccccc1 (configuration not stated)	inactive: 98%
O=C(CSC1=Nc2ccccc2C2=NC(CC(=O)NC3CCCCC3)C(=O)N12)Nc1ccc(F)cc1 (configuration not stated)	inactive: 78%
O=C(CSc1nc2ccccc2nc1Cc1ccc(Cl)cc1)N1CCc2ccccc21	inactive: 93%
CCc1ccc(CNC(=O)CN2C(=O)c3cccnc3Oc3ccc(Cl)cc32)cc1	inactive: 67%
Cc1ccc(-c2nc(C)c(CCNC(=O)c3ccco3)s2)cc1	inactive: 82%
COc1ccc(N2CCN(S(=O)(=O)c3ccc4oc(=O)c5ncn(C)c5c4c3)CC2)cc1	inactive: 73%
COc1ccc(-c2nc3sc(CCNC(=O)c4cc(OC)c(OC)c(OC)c4)c(C)n3n2)cc1	inactive: 83%
Cc1cc(C)cc(-n2ccnc2SCC(=O)Nc2nnc(C)s2)c1	inactive: 84%
CCOC(=O)c1sc2ncn(CC(=O)Nc3ccc(N(C)C)cc3)c(=O)c2c1C	inactive: 72%
O=C(Nc1nc2ccc(S(=O)(=O)N3CCCC3)cc2s1)c1cccc(F)c1	inactive: 75%
CCS(=O)(=O)N1CCc2cc(C(=O)Nc3ccc(OC)c(Cl)c3)ccc21	inactive: 47%
CCCCn1cc(S(=O)(=O)c2ccc(C)c(C)c2)c(=O)c2cc(F)c(N3CCCC(C)C3)cc21 (configuration not stated)	inactive: 89%

SMILES	survival
COc1ccc(OC)c(CNC(=O)c2nn(-c3ccc(OC)c(Cl)c3)c(=O)c3c2c2ccccc2n3C)c1	inactive: 131%
CCOc1ccc2nc(N3CCCC(C(=O)Nc4c(C)cccc4C)C3)sc2c1 (configuration not stated)	inactive: 82%
CC(=O)Nc1ccc(C(=O)CSc2nnnn2C(C)C)cc1	inactive: 93%
O=C(C1CCN(S(=O)(=O)c2ccc(Br)s2)CC1)N1CCN(c2cccc(Cl)c2)CC1	inactive: 76%
COc1cc(C(=O)NCCCc2nc3ccccc3n2CC(C)C)cc(OC)c1OC	inactive: 62%
Cc1ccc(Sc2c(C)nn(C(=O)COc3ccccc3Br)c2C)cc1	inactive: 88%
CCOc1ccc(CCNC(=O)c2sc3nc4n(c(=O)c3c2C)CCCC4)cc1OCC	inactive: 103%
Cc1ccc2[nH]c(CSc3nnc(NC(=O)COc4ccccc4)s3)cc(=O)c2c1	inactive: 82%
CCOC(=O)c1c(NC(=O)c2ccc(S(=O)(=O)N3CCC(C)CC3)cc2)sc2c1CCN(C)C2	inactive: 113%
NC(=O)c1c(NC(=O)c2nc(SCc3ccccc3F)ncc2Cl)sc2c1CCCC2	inactive: 53%
CCN(CC)c1ccc(NS(=O)(=O)c2ccc(-c3cnc(C4CC4)o3)cc2)c(C)c1	inactive: 84%
O=C1NCCN(Cc2ccc(F)cc2)C1=O	inactive: 83%
CCCn1c(SCc2nc(-c3ccc(OC)cc3OC)no2)nnc1-c1ccc(Cl)cc1	inactive: 53%
CCC1CN(C(=O)N2CCC(C(=O)NCCc3ccc(Cl)cc3)CC2)c2ccccc2O1 (configuration not stated)	inactive: 60%
COc1ccc(NC(=O)Cn2nnc(C(=O)Nc3ccc(F)c(Cl)c3)c2N)cc1OC	active: 37%
Cc1ccc(NC(=O)Cn2cc(C(=O)C3CC3)c3ccccc32)cc1	inactive: 148%
COc1ccc(-c2noc(CN(C(=O)COc3cc(C)c(Br)c(C)c3)C(C)C)n2)cc1	active: 31%
Cn1c(SCc2ccc(F)cc2)nc2ccc(C(=O)NCc3ccc(Cl)cc3)cc21	inactive: 50%
CCOc1ccc(N(C(=O)CC(C)C)S(=O)(=O)c2ccc3c(c2)oc(=O)n3C)cc1	inactive: 46%
Cc1ccc(-c2nc3scc(CCNC(=O)Cc4ccc(Cl)cc4)n3n2)cc1	inactive: 85%
COc1ccc(CCNC(=O)CCCn2c(=O)c3ccccc3n(Cc3cccc(Cl)c3)c2=O)cc1OC	inactive: 72%
CCC(=O)Nc1c(C(=O)N2CCN(c3ccc(F)cc3)CC2)oc2ccccc12	inactive: 70%

SMILES	survival
CCOc1ccc(CC(=O)NCCc2csc(-c3ccc(C)cc3)n2)cc1	inactive: 88%
COc1ccc(CCNS(=O)(=O)c2ccc3c(c2)CC(C)N3C(=O)C2CCC2)cc1OC (configuration not stated)	inactive: 68%
O=C(/C=C/c1ccccc1)N1CCN(CCN2C(=O)C3C4C=CC(C4)C3C2=O)CC1 (configuration not stated)	inactive: 70%
COc1ccc(S(=O)(=O)n2nc(C)c(S(=O)(=O)N3CCC(C)CC3)c2C)cc1C	inactive: 90%
N#C/C(=C/c1ccc(N2CCCCC2)o1)C(=O)NCCc1c[nH]c2ccccc12	inactive: 76%
CCOC(=O)c1ccc(NC(=O)c2c(NC(C)=O)sc3c2CCC(C)C3)cc1 (configuration not stated)	inactive: 47%
CCOc1ccc(CCNC(=O)c2ccc3c(Cl)c4c(nc3c2)CCCC4)cc1	inactive: 59%
O=S(=O)(NCCc1nnc2ccc(SCc3ccc(Cl)cc3Cl)nn12)c1ccccc1	active: 37%
Cc1ccc(CNC(=O)c2ccc3nc(N4CCCCC4)sc3c2)cc1	inactive: 89%
COc1cccc(C(c2sc3nc(-c4ccco4)nn3c2O)N2CCC(O)CC2)c1 (configuration not stated)	inactive: 120%
CCOc1ccccc1NC(=O)c1sc2nc3n(c(=O)c2c1C)CCCCC3	inactive: 45%
COCCOC(=O)c1c(C)n(S(=O)(=O)c2ccc(C)cc2)c2ccc(NS(=O)(=O)c3ccc(C)cc3)cc12	inactive: 66%
COC(=O)c1scc(-c2ccc(C)cc2)c1S(=O)(=O)Nc1cc(Cl)ccc1C	inactive: 88%
Cn1c(=O)c(=O)n(C)c2cc(N3CCOCC3)c(NS(=O)(=O)c3ccc(Cl)cc3)cc21	active: -1%
Cc1nn(Cc2ccc(F)cc2)c(C)c1NC(=O)c1cc(CC(C)C)on1	inactive: 52%
CCc1ccc(S(=O)(=O)c2cn(CC(=O)Nc3ccc(C)cc3)c3ccccc3c2=O)cc1	inactive: 73%
NC(N)=Nc1nc2cc(Cl)ccc2o1	inactive: 69%
COc1ccccc1NCc1cccn1-c1nnc(N2CCOCC2)s1	inactive: 94%
Cc1oc2ncn(C)c(=O)c2c1C(=O)NC(C)c1ccccc1 (configuration not stated)	inactive: 109%
O=c1[nH]c2ccccc2cc1CNc1ccccc1	inactive: 94%
O=C(CSC1=Nc2ccccc2N=C(c2ccc(F)cc2)C1)NCc1ccc(F)cc1	inactive: 75%
Cc1ccc(C)c(CN2C(=O)CSc3ccc(C(=O)NCc4ccc(F)cc4)cc32)c1	active: 46%

SMILES	survival
Cc1ccc(CSCc2ccc(C(=O)NCCc3ccc(Cl)cc3)o2)cc1	inactive: 78%
CC(C)Oc1ccc(CNC(=O)CN2C(=O)CCc3cc(S(=O)(=O)N4CCCCC4)ccc32)cc1	inactive: 87%
Cc1cc(C)cc(N2C(=O)CSC23C(=O)N(CC(=O)NCCc2ccccc2)c2ccccc23)c1 (configuration not stated)	inactive: 71%
CC(=O)Oc1ccc(C(=O)NC2CCSC2=O)cc1 (configuration not stated)	inactive: 72%
CN(C(=O)c1ccc2c(c1)N(Cc1cccc(Cl)c1)C(=O)c1ccccc1S2=O)C1CCCCC1 (configuration not stated)	inactive: 101%
CCOC(=O)C1=C(CS(=O)(=O)c2ccc(C)cc2)NC(=O)NC1c1ccc(C(C)C)cc1 (configuration not stated)	inactive: 81%
COc1ccc(NC(=O)CCS(=O)(=O)c2cccc3nonc23)cc1Cl	inactive: 68%
O=C(Nc1cc2c(cc1C(=O)c1ccccc1Cl)OCCO2)c1ccc(Br)cc1	inactive: 66%
Cc1nc2c(-c3ccccc3)c(C)nn2c(C)c1CCC(=O)NCc1ccccc1Cl	inactive: 56%
Cc1ccc(CSc2nc3cccnc3n2Cc2ccc(C(=O)NCCc3ccccc3)cc2)cc1	inactive: 70%
CCC(=O)N1c2nc(-c3ccco3)nn2C2(CCCCC2)[C@@H]2CCCC[C@@H]21	inactive: 111%
O=C(c1cccc(Br)c1)N1CCN(Cc2cc(=O)n3nc(-c4ccccc4)sc3n2)CC1	inactive: 82%
COc1ccc(N2CCN(C(CNC(=O)C(=O)NCCCN(C)C)c3cccnc3)CC2)cc1 (configuration not stated)	inactive: 57%
CCOc1c(Cl)cc(Cl)cc1CNCCSc1nnnn1C	inactive: 123%
O=C(CN1C2=NCCN2c2ccccc21)C12CC3CC(CC(C3)C1)C2	inactive: 117%
O=S(=O)(CCc1nc2ccccc2s1)c1ccc(Cl)cc1	inactive: 95%
O=C(CCC(=O)OCC(=O)c1ccc(Cl)cc1)Nc1ccc(Oc2ccccc2)cc1	inactive: 125%
CCCn1cc(S(=O)(=O)c2cc(C)ccc2C)c(=O)c2cc(F)c(N3CCOCC3)cc21	inactive: 102%
Cn1c(C(=O)N(Cc2ccccc2)Cc2cccs2)cc2sccc21	inactive: 100%
COC(=O)c1c(SCC(=O)Nc2cc(C)cc(C)c2)[nH]c2ccccc2c1=O	active: 39%
CCc1ccc2occ(CC(=O)Nc3c(C(=O)Nc4ccc(C)cc4)oc4ccccc34)c2c1	inactive: 105%
